# Laboratory results reported in PubChem BioAssay AID504466 (National Center for Advancing Translational Sciences (NCATS), 2011).
# Out of some 330,000 compounds screened, about 4,200 (1.3%) were called active. This list was built around the results that the source calls inconclusive (neither active nor inactive); the mix of calls is not that of the screen. Calls come from the whole dose curve; as a rule, active = well fitted activation curve with a large enough effect; inconclusive = small, poorly fitted or top-dose-only effect; inactive = no such curve, though single readings can be large or run the other way. Potencies beside an inconclusive call are fits to weak or partial responses and may not hold up.
# Test: qHTS screen for small molecules that induce genotoxicity in human embryonic kidney (HEK293T) cells expressing luciferase-tagged ELG1; note: nearly all actives have a fitted effect of over 60% in size; for activity change, positive = activation: % of control where 0% means no effect
# Settings: HEK293T ELG1-luciferase reporter, luminescence, 16 h; series mostly up to 46 µM
# Summary of the method: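 Genotoxic stress is detected as increased luminescence from luciferase-tagged ELG1 in HEK293T cells, measured with ONE-Glo after a 16 hr treatment at 37 °C.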
# Potency is the fitted concentration of half-maximal effect; tags give direction and shape of the fitted curve.
Compound,Potency,"activity change, positive = activation"
NC(=O)N/N=C/c1ccc(OCc2cccc(Cl)c2)cc1,"inconclusive: 20.6 µM [activator, partial curve, poor fit]",–
Cc1ccc(SCC(=O)N2CCN(S(=O)(=O)c3cccs3)CC2)cc1,inactive,–
Cc1ncc([N+](=O)[O-])n1CCOC(=O)C12CC3CC(CC(C3)C1)C2,inactive,–
CN(Cc1ccc(OC(F)F)cc1)C(=O)C1CCN(S(=O)(=O)c2ccc3c(c2)OCCO3)CC1,inactive,–
CC(=O)c1csc(COc2ccccc2)n1,"inconclusive: 20.6 µM [activator, partial curve, poor fit]",–
COc1cccc(NC(=O)c2ccc3c(c2)OCCO3)c1,active: 2.06 µM,–
COc1ccc(NC(=O)Cn2nnc(C(=O)NCc3ccccc3OC)c2N)cc1Cl,"inconclusive: 32.6 µM [activator, partial curve, poor fit]",–
COc1ccccc1OCCCC(=O)Nc1nccs1,"inconclusive: 13 µM [activator, partial curve, poor fit]",–
CCn1c(=O)cc(OCC(=O)NC2CC2)c2ccccc21,"inconclusive: 23.1 µM [activator, single point]",–
CCc1nc2cc(Cl)c(Cl)cc2nc1CC,inactive,–
CC(=O)Nc1ccc(NC(=O)C(C)OC(=O)/C=C/c2cnc3ccccc3n2)cc1 (stereo not given),inactive,–
Cc1ccccc1SCCNC(=O)CCc1ccccc1,inactive,–
Cc1ccc(S(=O)(=O)c2ncccc2[N+](=O)[O-])cc1,"inconclusive: 29.1 µM [activator, partial curve, poor fit]",–
CCCCC1(C)NC(=O)N(CC(=O)Nc2ccc(Cl)cc2C)C1=O (stereo not given),inactive,–
CC1Cc2cc(/C(O)=C3/C(=O)C(=O)N(Cc4ccco4)C3c3cccs3)ccc2O1 (stereo not given),"inconclusive: 18.4 µM [activator, single point]",–
CC(/C=N\NC(=O)c1cc(C)oc1C)=C\c1ccccc1,"inconclusive: 9.2 µM [activator, partial curve]",–
CC(C)OC(=O)Nc1ccc(-c2ccc(NC(=O)OC(C)C)cc2Cl)c(Cl)c1,inactive,–
CCOC(=O)c1sc2nc(SCC(=O)NCc3ccco3)n(Cc3ccccc3)c(=O)c2c1C,"inconclusive: 23.1 µM [activator, partial curve, poor fit]",–
COc1ccc2oc(C(=O)OCC(=O)Nc3ccc(C(=O)N(C)C)cc3)c(C)c2c1,"inconclusive: 32.6 µM [activator, partial curve, poor fit]",–
Cc1cc(/C=C(/C#N)c2cccc(F)c2)c(C)n1-c1cccnc1,active: 5.17 µM,–
CCc1ccc(C(=O)Nc2nnn(CC)n2)cc1,active: 1.64 µM,–
COC(=O)NCc1ccc2c(c1)OCO2,inactive,–
COc1ccc(NC(=O)C2CCCN2S(=O)(=O)c2ccc3c(c2)CCC(=O)N3)cc1Cl (stereo not given),"inconclusive: 20.6 µM [activator, single point]",–
COc1ccc([C@@H]2CC(=O)c3c(O)cc(O)cc3O2)cc1O,"inconclusive: 29.1 µM [activator, single point]",–
COc1cc(C(=O)NCc2ccc(-c3nc4ccccc4s3)cc2)cc(OC)c1OC,"inconclusive: 23.1 µM [activator, single point]",–

Compound,Potency,"activity change, positive = activation"
COc1ccccc1N1CCN(C(=O)c2ccc3c(=O)n(Cc4ccc5c(c4)OCO5)c(=O)[nH]c3c2)CC1,inactive,–
O=C(Nc1ccccn1)Nc1ccccc1Cl,"inconclusive: 20.6 µM [activator, partial curve]",–
CC1CCN(C(=O)c2cccc(S(=O)(=O)N3CCCc4ccccc43)c2)CC1,"inconclusive: 5.17 µM [activator, partial curve, poor fit]",–
C[C@@H](NC(=O)c1nc[nH]c1C(=O)N(C)Cc1ccccc1)c1ccccc1,inactive,–
O=C(OC(c1ccccc1)c1nccc2ccccc12)c1cccc([N+](=O)[O-])c1 (stereo not given),"inconclusive: 29.1 µM [activator, partial curve, poor fit]",–
O=C(CSCc1ccccc1)Nc1ccccc1,"inconclusive: 18.3 µM [activator, partial curve, poor fit]",–
CCc1cc2c(=O)n(-c3ccccc3)cnc2s1,inactive,–
CC(=O)Nc1cccc(-c2nc3ccccc3s2)c1,"inconclusive: 14.6 µM [activator, partial curve, poor fit]",–
Cc1ccc(N/N=C/c2ccc3c(c2)OCCO3)cc1Cl,"inconclusive: 20.6 µM [activator, partial curve]",–
O=C(/C=C/c1ccccc1)NC1CC2CCC1C2 (stereo not given),"inconclusive: 23.1 µM [activator, partial curve, poor fit]",–
O=C(Nc1ccccc1-c1nc2ccccc2s1)C1=COCCO1,inactive,–
O=C(C1CCN(c2ncnc3c2nc2n3CCCCC2)CC1)N1CCN(c2ccc(F)cc2)CC1,–,inactive: -3.05% [at 9.26 µM]
O=C(Nc1ccc(Cl)c(Cl)c1)N1CCC(N2CCCCC2)CC1,inactive,–
CC1=C(C(=O)Nc2ccccn2)C(c2ccccc2Cl)NC(=S)N1 (stereo not given),"inconclusive: 16.4 µM [activator, partial curve, poor fit]",–
COc1ccc(-c2cc(C(=O)O)c(C)o2)cc1OC,"inconclusive: 0.326 µM [activator, partial curve, poor fit]",–
NS(=O)(=O)c1ccc(NC(=S)NC(=O)c2ccc3c(c2)OCO3)cc1,inactive,–
Cc1ccc(NC(=S)Nc2cccc3ccccc23)cc1,"inconclusive: 20.6 µM [activator, single point]",–
Cc1ccc(Cl)cc1NC(=O)c1ccccn1,inactive,–
NC(=O)C1CCN(c2nc(-c3ccccc3Br)cs2)CC1,"inconclusive: 4.61 µM [activator, partial curve, poor fit]",–
COc1ccc(-c2cc(-c3cccs3)nc(OC)c2C#N)cc1OC,inactive,–
Nc1nc(-c2ccccc2)cs1,"inconclusive: 14.6 µM [activator, single point]",–
Cc1cccc(C(=O)O/N=C(\N)c2ccccn2)c1,active: 2.59 µM,–
Cc1cc2[nH]c3c(c[n+](C)c4ccccc34)c2cc1C,"inconclusive: 16.4 µM [activator, partial curve]",–
COc1ccc2c(c1OC)C(=O)N(c1ccc(C)cc1)C2,active: 18.3 µM,–
COc1cc(/C=N/n2c(C)n[nH]c2=S)ccc1OCc1ccccc1,"inconclusive: 18.4 µM [activator, partial curve]",–

Compound,Potency,"activity change, positive = activation"
Clc1ncccc1-c1nnn(-c2ccccc2Br)n1,"inconclusive: 23.1 µM [activator, partial curve, poor fit]",–
Cc1cc(C)c(C(CC(=O)c2cccs2)C(C#N)C#N)c(C)c1 (stereo not given),active: 18.4 µM,–
Nc1cc(S(=O)(=O)N2CCOCC2)ccc1Oc1cccc(Br)c1,inactive,–
Cc1csc(SCc2nnc(-c3ccc(Cl)cc3)o2)n1,active: 10.3 µM,–
O=C(NCCC(=O)N1CCCCC1)c1ccc(Br)cc1,"inconclusive: 13 µM [activator, partial curve]",–
COc1c(C)cccc1C(=O)Nc1ccc(N2CCOCC2)c(Cl)c1,active: 8.2 µM,–
CCC(=O)Nc1ccc(-c2ccc(N3CCCCC3)nn2)cc1,"inconclusive: 2.31 µM [activator, partial curve, poor fit]",–
CC(C)(C)C(=O)Nc1nnc(CCc2ccccc2)s1,"inconclusive: 16.4 µM [activator, partial curve]",–
CCCc1nnc(NC(=O)c2cccc(OC)c2)s1,"inconclusive: 18.4 µM [activator, single point]",–
Cc1nn(C)c(Cl)c1CN1CCN(C2CCCCC2)C(CCO)C1 (stereo not given),inactive,–
O=C(NCCCc1ccc(F)cc1)C1CCC(=O)N(CC2CCCCC2)C1 (stereo not given),inactive,–
CC(C)NC(=O)CSc1nc(-c2cccs2)cc(-c2ccccc2)c1C#N,"inconclusive: 32.6 µM [activator, partial curve, poor fit]",–
O=C(Nc1ccc(N2CCOCC2)c(F)c1)c1ccncc1,"inconclusive: 18.4 µM [activator, partial curve, poor fit]",–
O=c1c(C=NCCCO)c(-c2ccccc2)[nH]n1-c1nc2ccccc2s1,inactive,–
Cc1cccc(C(=O)NNC2=CC(=O)CC(C)(C)C2)c1O,"inconclusive: 18.3 µM [activator, partial curve, poor fit]",–
COc1ccc(/C=C(\CC(=O)O)c2nc3ccccc3o2)cc1,active: 16.4 µM,–
Cc1ccc(C(=O)Nc2cnc3ccccc3c2)cc1,"inconclusive: 0.0291 µM [activator, full curve, poor fit]",–
Cc1cc(C(=O)CN2CCC(C)CC2)c(C)n1-c1ccccc1F,"inconclusive: 2.31 µM [activator, partial curve]",–
CCCCCCNC(=O)c1c(O)c2ccccc2[nH]c1=O,"inconclusive: 16.4 µM [activator, partial curve, poor fit]",–
N#C/C(=C\c1cccc(Br)c1)C(=O)N1CCCCC1,inactive,–
COc1ccc(NC(=O)c2ccccn2)cc1,"inconclusive: 1.03 µM [activator, partial curve]",–
CS/C(N)=N/N=C/c1ccc2c(c1)OCO2,"inconclusive: 18.3 µM [activator, single point]",–
COc1ccc(-c2cc(-c3cc(F)ccc3O)[nH]n2)cc1OC,"inconclusive: 5.8 µM [activator, partial curve, poor fit]",–
COc1ccc(-c2cn3nc4c(nc3n2)CCCC4)cc1,"inconclusive: 0.112 µM [activator, full curve, poor fit]",–
O=C(Nc1ccc2c(c1)OCCO2)C1CCN(C(=O)c2ccc(F)cc2)CC1,"inconclusive: 18.4 µM [activator, partial curve, poor fit]",–
